# In paper PMC4336329 (PLoS ONE, 2015):
# The campaign covered roughly 310,000 compounds. About 14,000 (4.5%) showed an effect of 50% or more. Effects have a minus sign here. Some of the results follow.
# Molecular target: human ether-à-go-go-related gene (hERG) potassium channel (human, UniProt Q12809)
# Test: primary screen, population patch clamp on CHO cells stably expressing hERG
# 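Note: peak tail current of the secondary pulse compared with the same well before compound.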
# Chain of human ether-à-go-go-related gene (hERG) potassium channel (Q12809 whole entry, looked up): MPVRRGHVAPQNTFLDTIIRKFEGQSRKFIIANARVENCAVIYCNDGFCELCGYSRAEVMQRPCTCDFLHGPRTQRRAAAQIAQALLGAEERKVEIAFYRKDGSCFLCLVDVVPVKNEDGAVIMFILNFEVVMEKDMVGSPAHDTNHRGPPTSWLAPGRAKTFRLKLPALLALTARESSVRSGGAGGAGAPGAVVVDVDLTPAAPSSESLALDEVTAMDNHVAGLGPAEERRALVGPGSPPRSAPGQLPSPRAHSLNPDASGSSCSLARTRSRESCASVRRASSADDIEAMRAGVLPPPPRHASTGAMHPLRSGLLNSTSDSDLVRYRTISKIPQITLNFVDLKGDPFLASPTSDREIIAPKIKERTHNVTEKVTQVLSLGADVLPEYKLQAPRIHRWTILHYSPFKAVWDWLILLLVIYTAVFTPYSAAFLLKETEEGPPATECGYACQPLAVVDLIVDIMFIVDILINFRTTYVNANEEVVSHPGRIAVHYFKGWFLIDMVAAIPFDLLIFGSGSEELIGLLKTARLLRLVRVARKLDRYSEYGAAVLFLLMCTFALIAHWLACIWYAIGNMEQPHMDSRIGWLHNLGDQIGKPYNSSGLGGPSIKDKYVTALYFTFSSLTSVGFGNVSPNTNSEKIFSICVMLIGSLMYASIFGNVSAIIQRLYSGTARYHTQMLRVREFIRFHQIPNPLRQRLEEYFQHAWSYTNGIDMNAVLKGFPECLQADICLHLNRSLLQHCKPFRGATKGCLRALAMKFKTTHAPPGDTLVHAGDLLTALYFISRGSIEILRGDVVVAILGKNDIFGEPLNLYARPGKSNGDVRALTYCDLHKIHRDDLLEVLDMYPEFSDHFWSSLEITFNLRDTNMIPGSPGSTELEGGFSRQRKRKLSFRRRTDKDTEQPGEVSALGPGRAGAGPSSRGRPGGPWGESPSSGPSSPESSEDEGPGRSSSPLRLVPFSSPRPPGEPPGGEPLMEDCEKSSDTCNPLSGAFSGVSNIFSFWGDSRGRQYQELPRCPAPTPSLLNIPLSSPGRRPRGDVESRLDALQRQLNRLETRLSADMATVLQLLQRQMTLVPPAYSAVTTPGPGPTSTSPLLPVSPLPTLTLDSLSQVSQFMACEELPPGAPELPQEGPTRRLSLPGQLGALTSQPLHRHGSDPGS
row,Compound,"hERG current change (%, negative = inhibition) at 10uM"
1,Cc1cc(C)n(-c2ccc([N+](=O)[O-])cc2-c2nn[nH]n2)n1,9.88%
2,CCN(CC)C(=O)CSC1=Nc2ccccc2C2=NC(c3ccccc3)C(=O)N12 (centres unmarked),-46.4%
3,Cc1c(N2C(=O)/C(=C\C3CC=CCC3)SC2=S)c(=O)n(-c2ccccc2)n1C (centres unmarked),-6.68%
4,CN(C)CCOC(c1ccc(Cl)cc1)c1ccccn1.O=C(O)/C=C/C(=O)O (centres unmarked),-43%
5,COc1ccc(C(=O)NC(=S)NCc2ccco2)cc1OC,-19.2%
6,CCC1CCc2c(c3ccccc3[nH]c2=O)O1 (centres unmarked),1.25%
7,CN(C)C=O.Oc1cccc2c(NC(=S)Nc3ccc(OC(F)F)cc3)cccc12,-49.5%
8,COc1ccc(CNC2CCCCC2)cc1,-4.88%
9,O=C(CSc1ccc(-c2ccccc2)nn1)N1CCCCC1,6.08%
10,COC(=O)c1c(-c2ccc(OC)c(OC)c2)csc1N,12.1%
11,Cc1ccnc(NC(=O)c2ccc(NC(=O)CC3SC(N4CCCC4)=NC3=O)cc2)c1 (centres unmarked),3.47%
12,COc1cc(/C=C2\CCc3ccccc3C2=O)cc(OC)c1OC,-11.2%
13,Cc1cc(C)nc(SCC(=O)Nc2ccc(S(=O)(=O)N3CCCCC3)cc2)n1,-61.3%
14,O=C(NN=C1CCCC1)c1ccc([N+](=O)[O-])cc1,5.73%
15,O=C(Cc1ccccc1)Nc1ccccc1C(=O)N1CCCCCC1,-1.6%
16,COCCOC(=O)c1[nH]c2c(c1C)C(=O)CC(c1ccc(F)cc1)C2 (centres unmarked),5.27%
17,CC(C)(C)C(=O)Nc1ccc(C(=O)Nc2cccc(Oc3ccc(C(=O)O)c(C(=O)O)c3)c2)cc1,15.4%
18,O=C(CNC(=O)c1ccc(Cl)cc1Cl)NCC(=O)Nc1ccccc1N1CCOCC1,-27.6%
19,CSc1nc(N)nc(SCC(=O)c2ccccc2)c1C#N,-1.73%

row,Compound,"hERG current change (%, negative = inhibition) at 10uM"
1,COc1ccc(OC)c(NC(=O)c2cccc(N3C(=O)C4C5CCC(C5)C4C3=O)c2)c1 (centres unmarked),-40.5%
2,c1ccc(Cc2nn3c(-c4ccncc4)nnc3s2)cc1,-38.6%
3,COc1ccc([C@H]2CC(=O)C=C(c3ccc(F)nc3)C2)cc1OC,-16.2%
4,CC(/C=N/NC(=O)c1ccncc1)=C\c1ccccc1,9.78%
5,COc1cccc(CN(C)C(=O)c2ccc(COc3ccc(Cl)cc3)cc2)c1OC,16.8%
6,Cc1ccc(-c2nnc(Nc3ccc(C(=O)N(C)C)cc3)c3ccccc23)cc1S(=O)(=O)NC(C)(C)CO,9.39%
7,CCOC(=O)N1CCC(c2cc(=O)n3[nH]c(C)c(-c4ccc(F)cc4)c3n2)CC1,12.4%
8,CCOCc1[nH]c(=S)[nH]c(=O)c1Cc1ccc(OCC)cc1,9.49%
9,Cc1ccc(SC2CCN(C(=O)C3CCC(=O)N(C4CC4)C3)CC2)cc1 (centres unmarked),-39.3%
10,CCOC(=O)C1CN(S(=O)(=O)c2ccccc2)c2cc(S(=O)(=O)CC)ccc2O1 (centres unmarked),-23.3%
11,COc1ccc(/C=N/NC(=O)c2ccncc2)cc1CN1CCCc2ccccc21,-26.1%
12,Cc1cc(C)c2c3c(oc2n1)C(=O)N(c1cccc(Cl)c1)CC(=O)N3,1.82%
13,COc1cccc(-n2nc(-c3ccnn3-c3ccccc3)c(=O)n(C)c2=O)c1,-19.7%
14,O=C(Nc1ccc2c(c1)OCO2)Nc1ccc2c(c1)OCO2,15.3%
15,CS(=O)(=O)c1nc(S(=O)(=O)c2ccc(Cl)cc2)c(N2CCC(O)CC2)s1,-13.9%
16,O=C(C1CC(=O)N(c2ccc(Cl)cc2)C1)N1CCC(c2nc3ccccc3[nH]2)CC1 (centres unmarked),-71.6%
17,CCN(CC)S(=O)(=O)c1ccc(Cl)c(C(=O)NCc2ccccc2Cl)c1,-24.7%
18,CC(=O)Nc1cccc(NC(=O)C(=O)NCC(c2ccco2)N2CCc3ccccc3C2)c1 (centres unmarked),-17.2%
19,CCc1cc(=O)oc2c(C)c(O)c(CN(C)C)cc12,4.98%

row,Compound,"hERG current change (%, negative = inhibition) at 10uM"
1,CCOC(=O)c1cnc2c(C)cc(Cl)cc2c1N1CCN(C)CC1.Cl,-19.6%
2,COc1ccc(-n2cc(C(=O)c3cc4ccccc4oc3=O)c(C(C)=O)n2)cc1,10.5%
3,c1ccc2c(c1)[nH]c1c(N3CCSCC3)ncnc12,-4.82%
4,COCCCNC(=O)Cn1c(=O)n(CC(=O)NCCc2ccc(OC)c(OC)c2)c(=O)c2sccc21,2.38%
5,CC(C(=O)NCc1ccc2c(c1)OCO2)N1c2cccc3cccc(c23)S1(=O)=O (centres unmarked),-22.7%
6,CC1(C)Oc2ccc3ccc(=O)oc3c2CC1O (centres unmarked),20.8%
7,Cc1ccc(N2CCN(CCCN3C(=O)C4CCCN4C3=O)CC2)cc1.Cl (centres unmarked),-7.45%
8,COc1cc2[nH]c(=S)n(Cc3cccs3)c(=O)c2cc1OC,21.5%
9,N#CC(C#N)=Cc1ccc(-c2ccc(S(=O)(=O)N=C(N)N)cc2)o1,-8.1%
10,Oc1cc(O)c2c(c1)O[C@H](c1ccc(O)c(O)c1)[C@H](O)C2,-7.42%
11,COc1ccccc1Cn1c(=S)[nH]c2ccc(Br)cc2c1=O,17.7%
12,O=[N+]([O-])c1ccccc1OCCOc1ccccc1[N+](=O)[O-],9.27%
13,O=C(Cn1nc(C(=O)O)c2ccccc2c1=O)Nc1nc(-c2ccccc2)cs1,-12.1%
14,COc1ccc(CN2CCN(C(=O)c3cccs3)CC2)c(OC)c1OC,-6.53%
15,CCN1CCCC1CNC(=O)C(=O)NC (centres unmarked),15.7%
16,CCOC(=O)c1c(-c2ccc(C)o2)csc1N,20.5%
17,CC(Oc1ccc(Br)cc1)C(=O)NC1CCCCCC1 (centres unmarked),-12.4%
18,COc1ccc(OC)c(CN(CCN2CCOCC2)C(=O)Nc2ccccc2)c1,-10.1%
